Data as given in PubChem BioAssay AID1671188 (National Center for Advancing Translational Sciences (NCATS), 2021).
Out of some 100,000 compounds screened, about 250 (0.25%) were called active. The shares of active, inactive and inconclusive entries below differ from those in the screen. Calls follow the shape of the dose curve; as a rule, active = well fitted inhibition curve with a large enough effect; inconclusive = small, poorly fitted or top-dose-only effect; inactive = flat fitted curve, though single readings scatter. Potencies of inconclusive entries are left out as doubtful fits.

Each compound was assayed against Alanine aminotransferase 2 (Homo sapiens) (UniProt Q8TD30) (assay: Primary qHTS assay for inhibitors of Glutamate pyruvate transaminase 2 (GPT2)). Conditions: Recombinant GPT2, coupled pyruvate oxidase/HRP Amplex Red fluorescence; series mostly up to 57.7 µM.
Sequence of UniProt Q8TD30 (Q8TD30 whole entry, looked up): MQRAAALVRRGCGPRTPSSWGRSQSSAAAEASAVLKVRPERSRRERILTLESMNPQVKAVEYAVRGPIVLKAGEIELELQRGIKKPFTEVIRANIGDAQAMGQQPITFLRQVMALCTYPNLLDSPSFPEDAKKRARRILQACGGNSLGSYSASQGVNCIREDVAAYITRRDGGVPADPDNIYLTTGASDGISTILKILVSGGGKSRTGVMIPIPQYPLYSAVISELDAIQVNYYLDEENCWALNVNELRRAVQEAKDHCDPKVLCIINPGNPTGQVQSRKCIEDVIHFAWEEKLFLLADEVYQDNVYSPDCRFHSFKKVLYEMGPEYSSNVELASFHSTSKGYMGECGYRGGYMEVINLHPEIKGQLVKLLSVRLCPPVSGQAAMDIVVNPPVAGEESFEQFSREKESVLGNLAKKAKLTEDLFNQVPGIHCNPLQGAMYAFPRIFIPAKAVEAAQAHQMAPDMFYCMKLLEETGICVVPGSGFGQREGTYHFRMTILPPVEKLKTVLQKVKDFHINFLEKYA
Outline: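 Recombinant GPT2 (10ng/uL) with 250uM a-KG and 2mM L-alanine, 30 min at room temperature, in HEPES pH 7.5 buffer. Pyruvate detected by pyruvate oxidase/HRP/Amplex Red fluorescence after 30 min in the dark; AOA (50uM) as positive control.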
Also: nearly all actives have a fitted effect of over 60% in size.
Potency is read from the fitted curve at half-maximal effect; tags tell the direction and shape of the fitted curve.

Structure (SMILES) | Potency
CC1=C[C@@H](CNC(=O)c2cccnc2)[C@H](C(C)C)C[C@H]1CC(=O)NCc1ccccn1 | inconclusive [inhibitor, single point]
O=C1NC(=NC2CCCCC2)C2(CCCN(Cc3ccsc3)C2)N1c1cccnc1 (centres undefined) | inconclusive [inhibitor, single point]
CS(=O)(=O)c1ccc(CC(=O)N2CCCC(c3cccc(C(=O)O)c3)C2)cc1 (centres undefined) | inconclusive [inhibitor, single point]
Cc1ccc(C)c(CNC(=O)CCc2conc2-c2cccc(F)c2)c1 | inconclusive [inhibitor, single point]
O=C(c1ccc2c(c1)OCO2)N1CCC2(CC1)NC(=O)N(c1ccccc1Cl)N2 | inconclusive [inhibitor, partial curve]
Cc1cc(Cl)ccc1S(=O)(=O)N1CC(c2nc(Cc3ccccc3)no2)C1 | inconclusive [inhibitor, partial curve, poor fit]
c1ccc(CN2CCNc3cnc(Nc4ccc(N5CCOCC5)cc4)cc3C2)cc1 | inconclusive [inhibitor, full curve, poor fit]
CC(C)(C)OC(=O)NC(C)(CN)c1ccccn1 (centres undefined) | inactive
COc1ccccc1-c1cccc(CN2CCC(N[S+](=O)([O-])CCC(F)(F)F)CC2)c1 | inactive
CCNc1nc2c(s1)C(c1cccc(F)c1)CC(=O)N2 (centres undefined) | inconclusive [inhibitor, full curve, poor fit]
CC[C@@H]1[C@@H](NC(=O)CCCn2nnc(-c3ccc(F)cc3)n2)[C@@H]2CCO[C@H]12 | inactive
C[C@@H](NS(C)(=O)=O)c1onc(-c2ccccc2)c1C(=O)O | inconclusive [inhibitor, single point]
O=C(CCN1CCCCO1)N1CCCn2nc(C(O)C3CCC3)cc2C1 (centres undefined) | inconclusive [inhibitor, partial curve, poor fit]
O=C(Cn1ccn2nc(-c3ccc(F)cc3)c(CO)c2c1=O)NC1CCCC1 | inconclusive [inhibitor, full curve, poor fit]
CCCc1nnc(C[C@@H]2C[C@@H](C(C)C)[C@H](CNc3cccnc3)C=C2C)o1 | active: 10 µM
O=C(c1ccc(Cl)nc1)N1CCn2c(nnc2C2CC2)C1 | inactive
COc1ccccc1N1CCN(CC[C@@](C)(C(=O)C2CCCCC2)c2ccccc2)CC1 | inconclusive [inhibitor, partial curve, poor fit]
O=C(Nc1ccc(-c2nnc3n2CCCC3)cc1)c1ccccc1 | inconclusive [inhibitor, single point]
O=C(NCCc1ccccc1)c1ccc2nnc(-c3cccc(C(F)(F)F)c3)n2c1 | inconclusive [inhibitor, full curve, poor fit]
FC(F)(F)Oc1ccc(CNC2(Cc3cc(CN4CCOCC4)on3)COC2)cc1 | inconclusive [inhibitor, single point]
Cc1cc(C)n(CC(=O)N2CCN3CCS(=O)(=O)N(C4CC4)C(=O)C3C2)n1 (centres undefined) | inactive
COC(=O)[C@@H](C)NC(=O)[C@H]1CN(C(=O)c2cccnc2)CCN1C(=O)NC(C)C | inconclusive [inhibitor, single point]

Structure (SMILES) | Potency
Cn1nc(CN2CCN(c3ccncc3)CC2)c2c(Cl)cccc21 | inconclusive [inhibitor, full curve, poor fit]
CC(C)c1nc2c(c(-c3ccc(O)cc3)n1)CCN(Cc1ccc(F)cc1)CC2 | inactive
O=C1COCCN1c1cc(-c2ccccc2)cn2cncc12 | inconclusive [inhibitor, partial curve]
CC1(C)C(=O)N(CC2CCOCC2)[C@H]2CN(Cc3cccc(OC(F)(F)F)c3)C[C@H]2[S+]1(=O)[O-] | inconclusive [inhibitor, single point]
O=C(NC[C@H]1O[C@@H](CO)[C@@H](O)[C@H]1N1CCc2ccccc2C1)Nc1cccc(Cl)c1 | inconclusive [inhibitor, single point]
Cc1cc(C)n(-c2cccc(CN(C)C(=O)c3cc(C(C)C)no3)c2)n1 | inconclusive [inhibitor, single point]
Cc1cc(C)n(CCC(=O)N2CC(c3noc(COc4ccc(F)cc4)n3)C2)n1 | inconclusive [inhibitor, full curve, poor fit]
Cc1ccc(-c2cc3c(nc2-c2ccccc2)nc(C(=O)NCCN(C)C)n3C)cc1 | inconclusive [inhibitor, partial curve]
COc1ccc(C(=O)NC(C(=O)NCC(C)C)C2CCN(C(=O)c3cccs3)CC2)cc1 (centres undefined) | inactive
COCCN1C(=O)c2ccccc2C(C(=O)N2CCOCC2)C12CCCCC2 (centres undefined) | inactive
CCO[C@H]1CN(C(=O)c2ccccc2OC(F)(F)C(F)F)C[C@@H]1O | inconclusive [inhibitor, full curve, poor fit]
O=C(NC1CCN(c2cc(-c3ccc(Cl)cc3)[nH]n2)C1)c1ccccc1 (centres undefined) | inconclusive [inhibitor, full curve]
CCOc1ccccc1C(=O)N1CCC(n2cc(-c3nc(-c4ccccc4)no3)nn2)CC1 | inactive
Cc1ccc(-c2cc(C(=O)N3CCCC3c3nncn3C(C)C)[nH]n2)cc1C (centres undefined) | inactive
COCCn1cc(CN2CCN(Cc3cccc(F)c3)CC2)ccc1=O | inconclusive [inhibitor, single point]
O=C1NCN(Cc2ccc(Cl)cc2)C12CCN(Cc1ccc(OC(F)(F)F)cc1)CC2 | inconclusive [inhibitor, partial curve, poor fit]
CC(C)(C)CC(=O)N1CC[C@@H](CC(=O)O)[C@@H](CCN2CCN(c3ccc(F)cc3)CC2)C1 | inconclusive [inhibitor, single point]
CC1(C)CCC(C)(C)c2cc(C#Cc3ccc(C(=O)O)cc3)ccc21 | inconclusive [inhibitor, single point]
COCC(=O)N[C@H](C)c1c(-c2ccc(F)cc2)noc1C(=O)O | inactive
Cc1ccc(NC(=O)Nc2ccc(C)n(CC(=O)NCC(C)C)c2=O)cc1 | inactive
CCN(CC1CCCN(CCc2cccc(OC)c2)C1)C(=O)c1cc(C)no1 (centres undefined) | inactive
O=C(O)[C@H](Cn1ccc(=O)[nH]c1=O)NCc1ncc[nH]1 | inactive

Structure (SMILES) | Potency
O=C1c2cccnc2OC(COc2ccccc2)CN1c1ccccc1 (centres undefined) | inconclusive [inhibitor, full curve]
C=CC(=O)Nc1ccc(CN2C(=O)N(c3cc(OC)cc(OC)c3)Cc3cnc(Nc4ccc(N5CCN(C)CC5)cc4)nc32)cc1 | inactive
CN(C(=O)C1(c2ccc(Cl)cc2)CCOCC1)C1CCc2ccccc21 (centres undefined) | inactive
Cc1ccc(SCCN(C)c2cc(C3CC(O)C3)nc(N)n2)cc1 (centres undefined) | inactive
COc1ccc(CCC(=O)N2CCC3(CC2)NC(=O)N(c2cccc(Cl)c2)N3)cc1 | inconclusive [inhibitor, single point]
COc1ccc(C(=O)NC(C(=O)NCC(C)C)C2CCN(C(=O)C3CC3)CC2)cc1 (centres undefined) | inactive
COc1ccccc1-c1cn2c(n1)CO[C@@H](CNC(C)C)C2 | inconclusive [inhibitor, single point]
O=C(c1ccccc1)N1CCC2(C1)C(=NC1CCCC1)NC(=O)N2c1cc(F)cc(F)c1 (centres undefined) | inconclusive [inhibitor, single point]
CCN1CCC(n2cc(CNc3cc(Cl)c4ncc(C#N)c(Nc5ccc(F)c(Cl)c5)c4c3)nn2)CC1 | inconclusive [inhibitor, single point]
CO[C@H]1C(=O)N(C(C)C)[C@H]1C1CCN(C(=O)c2nn(C)c3ccccc23)CC1 | inconclusive [inhibitor, single point]
CC(C)CNC(=O)C1CC(c2ccccc2F)=NO1 (centres undefined) | inconclusive [inhibitor, single point]
O=C(NCC1CCN(c2cc(-c3ccc(F)cc3)[nH]n2)CC1)c1ccc[nH]1 | inconclusive [inhibitor, single point]
CC(O)(C(=O)O)C1CCC2(C)C1CCC1(C)C2CCC2C3(C)CCC(O)C(C)(COC4OC(CO)C(O)C(O)C4O)C3CCC21C (centres undefined) | inconclusive [inhibitor, partial curve, poor fit]
C#CCNC(=O)[C@@H]1Cc2cn(Cc3ccncc3)c3cccc(c23)[C@H](CC(C)C)N1 | inconclusive [inhibitor, single point]
CC1CCN(C(=O)C[C@@H]2c3nc(NC(=O)c4cccc(F)c4)sc3C[C@@H]3[C@](C)(CO)[C@H](O)CC[C@]32C)CC1 | inactive
CC1(NC(=O)C2CC2)CN(Cc2nc(-c3cccc(N4CCOCC4)c3)cs2)C1 | inactive
CCCCn1c(=O)c(C(=O)NCCc2ccccc2)nc2cccnc21 | inactive
O=c1[nH]c(=O)c2ccccc2o1 | inconclusive [inhibitor, single point]
C[C@@H](NC(=O)C1=C[C@@H](NS(=O)(=O)c2cccc(C(F)(F)F)c2)[C@@H](O)[C@H](O)C1)C(N)=O | inconclusive [inhibitor, full curve, poor fit]
Cc1cnc(CC2CCN(C(=O)C3COc4ccccc4O3)CC2)n1Cc1ccc(F)cc1 (centres undefined) | inactive
